Test results taken from the RNAGym collection of RNA variant scans (doi:10.1101/gad.245936.114).
Variants at the floor of the assay are shown more often than the library holds them.

B1: tRNA (parent)
chain: CUCUCGGUAGCCAAGUUGGUUUAAGGCGCAAGACUUUAAUUUAUCACUACGAAAUCUUGAGAUCGGGCGUUCGACUCGCCCCCGGGAGAUUUUUUCCUCGAGCAA

Variants of: B1
Test: nonsense suppression (GFP-seq) (ratio to wild type); higher = more function; SUP4oc tRNA, yeast GFP reporter sort-seq
In short: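 Yeast were grown in raffinose/galactose medium with 80 mg/L adenine, each strain bearing a genome-integrated ochre-suppressor tRNA variant from a ~3% random-mutation library, a galactose-driven GFP ochre reporter, and RFP. After sorting into GFP/RFP bins, every bin was sequenced on an Illumina platform at phred ≥30. The GFPSEQ value, a measure of nonsense suppression, is the weighted bin median GFP/RFP relative to the unmutated parent tRNA, using each variant's estimated cell share per bin as the weight. Only variants with ≥100 reads and ≥30 cells were included.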

Variant | nonsense suppression
A24U C27U A30U C77U | ≤ 0.026
A24U U57C | ≤ 0.026
G25C C27A A60G G67U | ≤ 0.026
G25C G28C A62U | ≤ 0.026
A24U G85U | 0.0597
A24U G85C | ≤ 0.026
A24U U63C G65A U70G C83A A89C | ≤ 0.026
A24U A62G C82U | ≤ 0.026
G25A G26C | ≤ 0.026
A24U A30G C80A | ≤ 0.026
G25U A54U G78C | ≤ 0.026
A24U G32U A60U | ≤ 0.026
A24U A30U | 0.0403
G25A G28U U57A C68U C75U | ≤ 0.026
G25C C27A A33G U35G C81A | ≤ 0.026
A24U G67A | ≤ 0.026
A24U G88C | ≤ 0.026
A24U G88U | ≤ 0.026
G25A G66U C79G | ≤ 0.026
G25C A60C A74G | ≤ 0.026
A24U U63A | 0.119
G25U A30G U70A A87C | ≤ 0.026
G25C G28A U63A | ≤ 0.026
G25C A62C U63G G86A | ≤ 0.026

Variant | nonsense suppression
G25A U58C A60G | ≤ 0.026
G25A A60C | ≤ 0.026
G25A C56G C79U | ≤ 0.026
G25A G61U U70G | ≤ 0.026
G25C C29A G78A A87G | ≤ 0.026
A24U A31G G66C | ≤ 0.026
G25A G28U | ≤ 0.026
G25A G28A | ≤ 0.026
G25A C77G | ≤ 0.026
A24U A60U | 0.0572
A24U A60G | 0.0422
G25U A31G A62U A74C | ≤ 0.026
G25C A31G | ≤ 0.026
A24U C29U | 0.233
G25A C64G | ≤ 0.026
A24U C29U A30U | ≤ 0.026
G25C G86A | ≤ 0.026
G25A C27U A33U U57G | ≤ 0.026
A24U U35A G88C | ≤ 0.026
G25C A54G | ≤ 0.026
A24U G28C | ≤ 0.026
G25C U70C | ≤ 0.026
G25A A62U | ≤ 0.026
A24U A31G C79A | ≤ 0.026

Variant | nonsense suppression
A24U C79A | ≤ 0.026
G25A G32A | ≤ 0.026
A24U A33U U58G G67C | ≤ 0.026
G25A G86C | ≤ 0.026
G25A G86U | ≤ 0.026
G25C G28A U71A | ≤ 0.026
G25C A33C A89G | ≤ 0.026
A24U G85C G88A | ≤ 0.026
G25A A60G G86C | ≤ 0.026
A24U C80G | ≤ 0.026
A24U C80U | 0.192
G25C G67U C82A | ≤ 0.026
A24U G69U | ≤ 0.026
G25A G73A | 0.0508
G25U A30G U57A A74C | ≤ 0.026
G25A G78C | ≤ 0.026
G25C U35A | ≤ 0.026
G25A G59C U76A | ≤ 0.026
A24U A89C | ≤ 0.026
G25A C81A G85C | ≤ 0.026
G25A C80G | ≤ 0.026
G25C G61A A62G | ≤ 0.026
A24U G59U A60C | ≤ 0.026
G25A A33G U71G | ≤ 0.026

Variant | nonsense suppression
G25C C77U C80G | ≤ 0.026
A24U G84C | 0.107
A24U A62C U63C G66C | ≤ 0.026
G25C A74U | ≤ 0.026
G25A G32U U71G | ≤ 0.026
G25C U70A G85A | ≤ 0.026
A24U U35G A87C | ≤ 0.026
G25C G28C | ≤ 0.026
G25C G28U U76C | ≤ 0.026
A24U G66A A89G | ≤ 0.026
G25C C56U C81A | ≤ 0.026
A24U G61C | ≤ 0.026
A24U U70G | ≤ 0.026
A24U U70A | ≤ 0.026
A24U U70C | ≤ 0.026
G25C G78C C79G G86A | ≤ 0.026
G25C A33U A62U | ≤ 0.026
A24U C27U U63C | ≤ 0.026
A24U G69A U71C G85A G86C | ≤ 0.026
G25C U58G C77U | ≤ 0.026
G25A C27U C34U | ≤ 0.026
A24U G78A C81G | ≤ 0.026
G25U A30C G69C U70A | ≤ 0.026
A24U C34A C79G | ≤ 0.026

Variant | nonsense suppression
G25A U35C | ≤ 0.026
A24U U71A | ≤ 0.026
A24U G28U G61U | ≤ 0.026
A24U C27U G28U U58C G78C | ≤ 0.026
G25A G26U G65A G67A | ≤ 0.026
G25C C79G | ≤ 0.026
A24U G61C G78C | ≤ 0.026
G25C G65A | ≤ 0.026
G25C C56A | ≤ 0.026
A24U G26C G67A G84C | ≤ 0.026
G25C A30G | ≤ 0.026
G25C A30U | 0.0299
G25C C34A A87U | ≤ 0.026
A24U G25U U55A | ≤ 0.026
G25U A33C A87G | ≤ 0.026
G25A U55C A62U | ≤ 0.026
A24U G65C A87G | ≤ 0.026
G25A A62C A89C | ≤ 0.026
A24U G59U A74G C80U | ≤ 0.026
A24U U76G | ≤ 0.026
A24U U76C | 0.131
A24U C72U | ≤ 0.026
A24U G26U C34U | ≤ 0.026
A24U U58G | ≤ 0.026

Variant | nonsense suppression
A24U U58C | ≤ 0.026
A24U C29U U58A A62G | ≤ 0.026
G25C G66A U70G | ≤ 0.026
A24U G26U C27G C75G | ≤ 0.026
A24U G25U G66U | ≤ 0.026
G25A G69A C81U | ≤ 0.026
G25C C68A | ≤ 0.026
A24U G28C A87C | ≤ 0.026
G25A C83A | ≤ 0.026
A24U U58A G59A | ≤ 0.026
G25C C75A | 0.826
G25A U55C A62C U70A | ≤ 0.026
A24U U55C C82G C83A G88C | ≤ 0.026
G25C G32C U57C | ≤ 0.026
A24U U35G A89G | ≤ 0.026
G25C U35C G88A | ≤ 0.026
A24U A62G | 0.0414
A24U A62U | 0.0332
A24U U35A | ≤ 0.026
A24U A87G | 0.147
A24U C80A G84C | ≤ 0.026
A24U G66U | ≤ 0.026
A24U A30U A62C | ≤ 0.026
A24U G73U | ≤ 0.026

Variant | nonsense suppression
A24U C82U | 0.0571
G25A G66U | ≤ 0.026
G25A U55A | ≤ 0.026
G25C C34U U55A | ≤ 0.026
A24U A54G A62U | ≤ 0.026
G25C C75A C83A A87G | ≤ 0.026
G25A U35G U58A | ≤ 0.026
G25C U71G | ≤ 0.026
G25C G61A U63C | ≤ 0.026
A24U C64G G69C | ≤ 0.026
A24U C34A | ≤ 0.026
G25A C34G | ≤ 0.026
G25A A30G U57C U63A | ≤ 0.026
G25C G26C | ≤ 0.026
A24U G65C C82A | ≤ 0.026
G25A G59A | ≤ 0.026
G25C U63A G69C | ≤ 0.026
G25A U71G A74U G78C | ≤ 0.026
G25C C80G G84A | ≤ 0.026
G25C U63C G67C G84U | ≤ 0.026
A24U C27A G88A | ≤ 0.026
G25C U35C C80G G84A | ≤ 0.026
A24U C29A A62U C80G | ≤ 0.026
